Self-cleavage data for 112 variants are collected here from the RNAGym collection of RNA variant scans (doi:10.7554/elife.90254).

Read counts are not given, so values of variants with three or more changes are uncertain.

B1: LINE1-mini (parent)
chain: GGCAGAGCUCAACACAGCGUGGCAAAGUGGCUGUGGCUAGACUGCC

The variants in the data set derive from B1. Nature of the data set: self-cleavage, relative activity (ratio to wild type); higher = more cleavage; in vitro, sequencing; the parent is a self-cleaving ribozyme.
For GACAGAGCUCAACACAGCGUGGCAAAGUGGCUGUGUCUCGACUGCC, the self-cleavage was determined as 0.03.
The value for GCCAGAGCUCAGCACAGCGUGCCAAAGGGGCUGUGGCUAGAUUGCC was 0.02.
Under GCCAGAGCUCUACACAGCGUGGCAAAUUGGCUGUGGCUAUACUGCC stands 0; under GCCAGAGCUCCACACAGCGUGGCAAAGUGGCUGUGUCUGGACUGCC, 0.01.
For GCCAGAGCUCAGCACAGCGUGGCAAAGUGUCUGUGGCUAUACUGCC, the self-cleavage is 0.38.
The value for GCCAGAGCUCAACUCAGCGUGGCAAAGUUGCUGUGCACAGACUGCC was 0.08; that for GCCCAACCUCAACACAGCGUGGCAAAGUGACUGUGGCUAGACUGCC was 1.1; that for GCCAGAGCUCCACACAGCGUGGCAAAGUGGCUGUGGCUAGACUUCC was 0.02.
The value for GACAGAGCUCAACACAGCGAGGCAACGUGGCUGUGGCUAGACUUCC was 1.04; that for GACAGAGCUCAACACAGCGUGGCAAAUUGGCUGUGGCUAUACUGCC was 0.34.
The value for GCCAGAGCUCCACACAGCGUGUCAAAGUGGCUGUCGCUAGACUGCC was 0.02; that for GCCAGAGCUCGACACAGUGUGGCAAAGUGACUGUGGCUAGACAGCC was 0.01; that for GACAGAGCUCAACACAGCUUGGCAAAGUGGCUGUGGCGAGUCUGCC was 0.03.
In the case of GCCAGUGCUCAGCACAGCGUGGUAAAGUGGCUGUGGUUAGACUGCC, the self-cleavage is 0.21.
The value for GACAGAGCUCAACACAGCGUGGCAAACUGGCUGUGGCUAGACUCCC was 0.83.
Consider GACAGAGCACAACCCAGAGUGACAAAGUGGCUGUGGCUAGACUGCC, for which the self-cleavage was 0.07.
Under GACAGAGCUCAACACAGCUUGACAAACUGGCUCUGCGUAGACUACC stands 0.04; under GCCCGAGCUAAACACAGGGUGACAAAGUGGAUUUGGCUAGACUGCC, 0.01; under GACAGAGCCCAACACAGCGUUGCAAAGUGGCUGUGGCUAGACUGCC, 0.06.
GACAGAGCUCAACACAGCGGGGCAAAGUGGAUGUGGACAGACUGCC: the self-cleavage came to 0.01.
The value for GCCAGAGCUCAGCACAGGGUGACAAAGUGGCUGUGGCUAGACUGCC was 0; that for GCCUGAGCUCAACACAGCGUGGAAACGCGGCUGUGGCUAGAUUGCC was 0.07.
The value for GACAGAGCUCAACACAGCGGUGCAAAGUGGCGGUGGCUUGACUGCG was 0.21; that for GCCAGAGCUCAGCACAGCGUGUCAAAGUGGCUGUGGCGAGACUGCC was 0.04.
The value for GACAGAGCUCAACACAGCGCGGCGAAGUGGGUGUGGCUAGCCUGCC was 0.1.
GACAGAGCUCAACACAGCGUGGCAAAGCGCCUGUGGCUAGACUGCC: the self-cleavage amounted to 1.1.
The value for GCCAGUGCUCAACACAGCGUGGCAAAGUGGCUGUGGCUGGACUGCC was 0.08; that for GACAGAGCUCAACACAGCUUGGCAAAGUGACUGUGGCUAGACUGCC was 0.25; that for GCCAGAGCUCAGGACAACGUGGCAAAGUGGCUGUGGCUUGACUGCC was 0.03.
As for GCCAGAGCUCAACCCAGCGUGGCAAAGUGGCAUCGGAUAGACUGCC, the self-cleavage amounted to 0.02.
The value for GCCAGCGCUCUACACAGCGUGGCAAAGUGGCUGUGGCUAGACCGCC was 0.03; that for GACAGAGCUCAACACAGCGUGGCAAAGUGGCUGUUGCUAGACUGGC was 0.03; that for GACAGAGCUCAACACAGCGUGGCAAAGUGGCUGUGGCUAGACUCUA was 0.02.
Under GACAGAGCUCAACACAGCGUGGCAAAGAGGCUGUGACUAGACUGCC stands 0.61; under GACAGAGCGCAACAAAGCGUGCCAAAGUGGCUGUGGCUAAACUGCC, 0.06.
The value for GACAGAGCUCAACACAGCGUCGCAAAGUGGCGGUGGCUAGACUGAC was 0.22; that for GCCAGAGCUCAACUAAGCGUGACAAAGUGGCUGUGGCUAGUCUGCC was 0.09.
On to GACAGAGCUCAACACAGCGUUGCAGAAUGGGUGUUGAUAAACUGCC, for which the self-cleavage came to 0.01.
The value for GCCAGUGCUCAACACAGCCUGGCAAAGUGGCUGUGGCUUGACUGCC was 0.04; that for GACAGAGCACAACAAAGCGUGGCAAAGUGGCUGUAGCUAGACUGCC was 0.5; that for GACAGAGCUCAACACAGCGUGGCAAAGUAUCUGUGGCUAGACUGCC was 0.57.
Under GCCAGAGCUCUUCACAGCGUGGCAAAGUGGCUGUGGCUAGACACCC stands 0.03.
In the case of GACAGAGCUCAACACAGCGAGGCAAAGUGGCUGGGGCUAGACUGCC, the self-cleavage came to 0.11.
The value for GCCAGUGCUCAACACAGCGUGCUAACGUGGCUGUGGGUAGGCUGCC was 0.17.
The value for GACAGAGCUCAACACAGCGGGGCAACGUGGCUGUGGCUAGACUGCC was 0.1; that for GACAGAGCUCAACACAGCGUUGCAAAGUGGAUGUGGCUAGACUGCC was 0.07.
With GACAGAGCUCAACACAGCGUGGCAAAGUGGCUGUGGCUAAACUUCU, the self-cleavage came to 0.36.
Under GACAGAGCACAACACAGCGUGCCAAAGUGGCUGUGGCUAGACUGCC stands 0.21.
Under GCCCGAGCUCAACACAGCGUGGCAGAGCUGCUGUGGCUAGACUGCC stands 0.2; under GACAGAGCUCAACACAGCGUGGCAAAGUAGGUGUGGCUAGACUGAC, 0.23; under GCCAGAGCUCCACACAGCGUGGCAAAGUAGCUGUGGCUAGACUGCC, 0.01.
For GCCAGAGCUCGACACAGCGUGUCAAAGUGGCUGUGUCUAGACCGCC, the self-cleavage came out at 0.
Under GCCAGUGCUCAACUCCGCGUGGCAAAGUGGCUGUGGCUAGACUGCC stands 0.3.
Under GCCUGAGCUCAUGACAGCGUGGCAAAGUGGCUGUGGCUAAACUGCC stands 0.21; under GACAGAGCUCAACACAGCGUGGCAAAGUCGCUGUGACUAGACUGGC, 0.05; under GCCAGAGCUCAACCCAGAGUGGCAAAGUGGCUGUGGCUAGACUGCC, 0.07.
The value for GCCAGAGCUCAACACCGCGUGGCAAAGUGGCUGCGGCUAGACUGCC was 0.14; that for GACAGAGCUCAACACAGCGUGGCAAAGUGGCUGAGGCUAGACUGAC was 0.05.
For the variant GCCAGAGCUCCACACAGCGUGGCAAAGUGGUUGUGGCUAGACUGCC, the self-cleavage is 0.03.
GCCAGAGCUCAACUAAGCGUGGCAAUAUCGCUGUGACUAGACUGCC: the self-cleavage was determined as 0.1.
The value for GACAGAGCUCAACACAGCGUUGCAAAGUGGCUGUGGUGAGACUGCC was 0.05; that for GACAGAGCUCAACACAGCGUGGCAAAGUGGCUGGGGCUAGACUGCU was 0.24.
Under GCCAGAGCUCAGCACAGCGUGGCAAAGUGGCUGUGGUUAGACUGCC stands 0.03; under GACAGAGCUCAACACAGCGUUGCACAUUGGCUGUGGCUAGACUGCC, 0.6; under GACAGAGCUCAACACAGCUCGGUAAAGUGGCUGUGGCUAGACUGCC, 0.1.
The value for GACAGAGCUCAACACAGCGUGGCAAAGUGGCGGUGGCUAGAAUGCC was 0.19; that for GACAGAGCACAACACAGCGUGGCAAAGUGGCUGUGGCUAGACGGCC was 0.34.
GCCAGAGCUCACCACGGCGUGGAAAAGUGGCUGUGGGUAGACUGCC: the self-cleavage was 0.02.
The value for GACAGAGCUCAACACAGCGUGACAAAGUGGCUGUGGCUACACUGCC was 0.03; that for GACAGAGCUCAACACAGCGUGGCAAAGCGGCUGUUGCUAGACUGCC was 0.04; that for GCCAGAGCUCACCACAGAGUGGCAGAGUGGCUGUGGCUAGACUGGC was 0.01.
Under GCCGGAGCUCAACACAACGUGGCAAACUGGCUUUGGCUAGACUGCC stands 0.07.
Under GCCAGGGUUCAACACAGCGUGGCAAAGUGGCUUUGGCGAGACUGCC stands 0.03; under GCCUGAGCUCAACACAGCGUGGCAAAGUGGCAGUGGCUAGACUGCC, 0.04.
In the case of GACAGAGCUCAACACAGCGUGGCAAAGUGGCCGUGGCUAAACUGCC, the self-cleavage is 0.02.
The value for GACAGAGCGCAACACGGCGUGGCAAAGUGGCUGUGGCUAGCCUGCC was 0.13; that for GCCAGAGCUCAUCACAGCGUGGUAAAGUGGCUGUGGCUAGACUGCC was 0.05; that for GCCAGAGCUCAUCACAGCGUGGAAAAGUGGCUGUGGCUAGACUGCC was 0.03.
Turning to GACAGAGCUCAACACAGCGUGGCAAACCGGCUGUGGCUAGACUGCC, the self-cleavage was 0.19.
The value for GCCAGAGCUCACCACACCGUGGCAAAGUGACUGUGGCUAGACUGCC was 0; that for GCCAGAGCUCAACUCAGCGUGGCAACGUGUCUGUGUGUAGACUGCC was 0.08; that for GACAGAGCUCAACACAGCGUGGCAAAGUGGCUGUGGCUAGACUAUC was 0.13.
Consider GCCAGAGCUCAACCCAGCGUGGCAAAGUGGCUAUGGCUAGACUGCC, for which the self-cleavage was 0.22.
Under GCCAGGGCCCAACACACCGUGACAAAGUGGCUGUGGCUAGACUGCC stands 0.01; under GCCAGCGCUCAACACAGCGUGGCAUAGUGACUGUGGCUAGACUGAC, 0.07; under GACAGAGCCCCACACAGCGUGGCACAGUGGCUGUGGCUAGACUGCC, 0.02.
Regarding GACAGAGCUCAACACAGCGUGGCAAAGUGGCUGUGGCUACUCUGCA, the self-cleavage stood at 0.08.
Under GACAGAGCUCAACACAGCGUGGCAAAGUGGCUGUUGCUAGACGGCC stands 0.14; under GCCAGAGCUCAGCAUAGGGUGGCAAAGUGGCUUUGGCUUGACUGCC, 0.07.
The value for GCCUGAACUCAACACAGCGUGGCAAAGUGGCUGCGGCUAGACUGCC was 0.43; that for GCCCGAGCUGAACACAGCGUCGCAAAGUGGCUGUGGCUAGACUGCC was 0.03; that for GACAGAGCUCAACACAGCGUGGCAAAGUGGCUGUGACUGGAAUGCC was 0.1.
Under GACAGAGCUCAACACAGCGUCGCAAAGUGGCUGUGGCUAGACUGCA stands 0.47; under GACAGAGCACAACUCAGCGUGGCAAAGUGGCUGUGGCUAGACUGCC, 0.18; under GCCAGAGCUCGACACAGCGCGGCAAAGUGGCUGUGGCUAGACUGCC, 0.01.
GACAGAGCCCAACACCGCGUGGGAAAGUGGCUGUGGCUAGACUGCC: the self-cleavage stood at 0.04.
Under GACAGAGCUCAACACAGCGUGGCAAAGUUGCUGUGAUUAGACUGCC stands 0.95; under GACAGAGCUCAACACAGCGUGGCAAAGUGACGUUCGCUCGACUGCC, 0.05; under GCCAGAGCUCAUCACAGCGAGGCAAAGUGGCUGUGGAUAGACUGCC, 0.02.
GCCAGAGCUCAGCACAGCGUGGCAAAGUGGCUGUGCCUAGACUCCC: the self-cleavage came out at 0.06.
The value for GACAGAGCCAAACACAGCGUGGCAAAGUGGCUGUGGCUAGACUGUC was 0; that for GACAGAGCUCAACACAGCGUAGCAAACUGGCUAUGGCUAGAAUGCC was 0.05; that for GCCAGAGCUCAGCACAGCGUGGCUAAGUGGCUGUGGCUGGACUCCC was 0.02.
As to GCCAGCGCUCAACACAGCCUGGCAAAGUGGCUGUGGCUAGACUGCC, the self-cleavage is 0.06.
Take GACAGAGCUCAACACAGCGUGGCAAAGUGGCUUUGGCUAGACUGCA: the self-cleavage came to 0.
The value for GACAGAGCGCAAUACAGCGUGGCAAAGUGGCUGUGGCUAGACUGCC was 0.21; that for GCCCGAGCUCAAUACAGCGUGGCAAAGUGGCUGUGGCUAGACUGCC was 0.11.
For GCCUGAGCUCAACACAGCGUGGCAAAGGGGCUGUGGCUAGACUGCC, the self-cleavage was found to be 0.02.
Take GCCUGAGCUCAACAUACCGUGGCAAAGUGGCUGUGGCUAGACUGCC: the self-cleavage was determined as 0.1.
The value for GACAGAGCAAAACACAGCGUGGCAAAGUGGCUGUGGCUAUACUGCA was 0.09; that for GACAGAGCUCAACACAGCGUGACUAAGUGGCUGUGGCUAGACUGCC was 0.4; that for GACAGAGCUCAACACAGCGUGGCAAAGUGGCUGGGGCUAGACAGCC was 0.06.
